# In all, about 410,000 compounds went through this assay and about 490 (0.12%) were called active. Inconclusive means that the source gave no clear call. Such entries were picked first, then a sample of the others. Calls come from the whole dose curve; as a rule, active = well fitted inhibition curve with a large enough effect; inconclusive = small, poorly fitted or top-dose-only effect; inactive = flat fitted curve, though single readings scatter. Potencies of inconclusive entries are doubtful fits and often do not repeat.
# Biological target: pyruvate kinase (Trypanosoma brucei) (UniProt Q57TT1)
# Test: qHTS of Trypanosoma Brucei Inhibitors; note: nearly all actives have a fitted effect of over 50% in size
# Conditions: TbPYK enzyme, Kinase-Glo Plus ATP luminescence, 45 min; series mostly up to 76.8 µM
# Text: Members of the Trypanosomatidae family of parasitic protozoans cause a spectrum of diseases throughout the tropical and subtropical world. Sleeping sickness, caused by two subspecies of Trypanosoma brucei, is endemic to areas of sub-Saharan Africa, while Chagas' disease, a manifestation of Trypanosoma cruzi infection, is prevalent throughout Central and South America. In addition, many species of Leishmania are responsible for a range of cutaneous and visceral diseases, causing ulcers, destructive lesions and kalaazar, a lethal infection of the viscera. These diseases cause severe public health and economic burdens on populations that are often already caught in a tragic cycle of poverty, poor nutrition and disease. Collectively, parasites of the trypanosomatid family infect 30 million people worldwide (~500 million live in endemic areas), and account for ~130K deaths annually. Existing treatments have developed little in the past 50 years, and suffer from toxicity, poor efficacy and resistance; the goal of this project is to develop lead drugs that will be suitable for entry into pre-clinical trials.
# Glycolysis in axenically cultured T. cruzi, representing the intracellular pathogenic stage, is also essential for these parasites. {Engel, 1987} This project aims to discover and optimize selective inhibitors of the glycolytic enzyme pyruvate kinase (PYK) from Trypanosoma brucei, the parasite that causes sleeping sickness. […] Trypanosomatid PYKs show significant differences from their human counterparts including only 47-50% sequence identity and different allosteric and activation properties.{Callens, 1992} To this end, a qHTS was done against the MLSMR to discover inhibitors.
# NIH Molecular Libraries Probe Production Network [MLPCN]
# NIH Chemical Genomics Center [NCGC]
# PI Name: Malcolm Walkinshaw, University of Edinburgh
# 2 uL of TbPYK/substrate buffer (columns 1-3, 5-48) are dispensed into Greiner white solid bottom 1536-well assay plates; column 4 receives only TEA buffer as 0x TbPYK controls. Compounds are then transferred via Kalypsys pin tool equipped with 1536-pin array (10 nL slotted pins, V&P Scientific, San Diego, CA). Following addition of compound, 2 uL of ADP (130 uM final concentration, all columns) is added to initiate the reaction. The plates are then incubated at room temperature for 45 minutes. Kinase-Glo Plus reagent is added (3 uL) and plates incubated for 10 minutes, before being transferred to a ViewLux high-throughput CCD imager (PerkinElmer) wherein single end-point measurements of luminescence are acquired using a clear filter. All reagents are diluted in an assay buffer consisting of 50 mM TEA (pH 7.2), 100 mM KCl, 10 mM MgCl2, 0.05% BSA and 0.01% Tween-20.
# All screening operations will be performed on a fully integrated robotic system (Kalypsys, San Diego, CA) containing one RX-130 and two RX-90 anthropomorphic robotic arms (Staeubli, Duncan, SC). Library plates will be screened starting from the lowest and proceeding to the highest concentration. Vehicle-only plates, with DMSO being pin-transferred to columns 5-48, will be inserted uniformly at the beginning and the end of each library in order to monitor and record any shifts in the background, which can be affected by reagent dispensers or loss in enzyme activity over time. Screening data will be corrected, normalized, and concentration-effect relationships will be derived by using publicly-available curve fitting algorithms developed in-house (http://ncgc.nih.gov/pub/openhts).
# Potency is the fitted concentration of half-maximal effect; tags give direction and shape of the fitted curve.
row,Compound,Potency
1,C[Se]CC[C@H](N)C(=O)O,"inconclusive: 1.78 µM [inhibitor, full curve, poor fit]"
2,CCOc1ccccc1NC(=O)CCC(=O)Nc1nnc(C2CCCCC2)s1,inactive
3,COc1ccccc1-n1c(=S)[nH]c2c(sc(=S)n2-c2ccccc2C)c1=O,"inconclusive: 12.6 µM [inhibitor, partial curve, poor fit]"
4,O=C(O)CCC(=O)Nc1ccc(SSc2ccc(NC(=O)CCC(=O)O)cc2)cc1,"inconclusive: 2.82 µM [inhibitor, partial curve, poor fit]"
5,O=S(=O)(Nc1ccccc1F)c1cccc(NC(=S)NCCN2CCOCC2)c1,"inconclusive: 35.5 µM [inhibitor, partial curve, poor fit]"
6,CC(N=Cc1cccc(O)c1O)c1ccccc1 (centres undefined),"inconclusive: 35.5 µM [inhibitor, single point]"
7,CCCCCCCCC(c1nc2ccccc2[nH]1)N1CCN=C1c1cc2ccccc2[nH]1 (centres undefined),inactive
8,O=C1CCNc2cc3ccccc3cc21,"inconclusive: 31.6 µM [inhibitor, partial curve, poor fit]"
9,O=C1NC(=O)C(=Cc2ccccc2[N+](=O)[O-])C(=O)N1,"inconclusive: 28.2 µM [inhibitor, partial curve]"
10,Cc1ccc(-c2noc(C3CCCN(C(=O)c4ccccc4)C3)n2)o1 (centres undefined),inactive
11,CC(/C=N/n1c(-c2ccccn2)n[nH]c1=S)=C\c1ccccc1,"inconclusive: 6.31 µM [inhibitor, partial curve]"
12,COc1cc(/C=C(\CC(=O)O)c2nc3ccccc3s2)cc(OC)c1O,"inconclusive: 35.5 µM [inhibitor, single point]"
13,O=C(Nc1ccc(-c2nc3c(ccc4ccccc43)o2)cc1)c1ccco1,"inconclusive: 31.6 µM [inhibitor, single point]"
14,CC(=O)NC1=NC(=O)/C(=C/c2cc(C)n(-c3cccc(C(=O)O)c3)c2C)S1,"inconclusive: 31.6 µM [inhibitor, single point]"
15,CCOC(=O)N1CCc2c(sc(NCc3cc(OC)ccc3OC)c2C(=O)Nc2cc(OC)ccc2OC)C1,"inconclusive: 0.891 µM [inhibitor, full curve, poor fit]"
16,COc1ccc(S(=O)(=O)Nc2nc(C(F)(F)F)cs2)cc1,"inconclusive: 44.7 µM [inhibitor, single point]"
17,COC(=O)C(CC(=O)c1ccc(Br)cc1)n1nc(C)cc1C (centres undefined),"inconclusive: 35.5 µM [inhibitor, partial curve]"
18,O=c1c2ccccc2nnn1-c1ccc(Br)cc1,inactive
19,CCOC(=O)C1=C(CC)Nc2ccccc2N=C1NC(=O)c1ccc(S(=O)(=O)N(C)C)cc1,"inconclusive: 20 µM [inhibitor, partial curve, poor fit]"
20,CCOC(=O)C1CCN(C(=O)CC(NS(=O)(=O)c2ccc(OC)cc2)C(C)C)CC1 (centres undefined),"inconclusive: 39.8 µM [inhibitor, single point]"
21,Cc1ccc(-c2nc3ccccc3c(=O)n2-c2cccc(C)n2)cc1,inactive
22,COc1ccccc1/C=C/C=N/n1c(-c2ccc(F)cc2)n[nH]c1=S,"inconclusive: 35.5 µM [inhibitor, partial curve, poor fit]"

row,Compound,Potency
1,Nc1c(O)ccc2c1C(=O)c1ccccc1C2=O,"inconclusive: 22.4 µM [inhibitor, partial curve, poor fit]"
2,Cc1cc(C(=O)COC(=O)c2ccc(O)cc2)c(C)n1Cc1ccco1,inactive
3,COc1ccc(-c2nc(C)c(CCNC(=O)c3cccc(C)c3)s2)cc1OC,inactive
4,COCCNC(=S)Nc1cc(S(=O)(=O)N2CCOCC2)ccc1N1CCCCC1,"inconclusive: 28.2 µM [inhibitor, partial curve, poor fit]"
5,CC1(C)C(=O)Nc2ccccc2N1C(=O)COC(=O)c1ccc(Cl)c(S(=O)(=O)NCc2ccccc2)c1,"inconclusive: 25.1 µM [inhibitor, single point]"
6,Cc1ccc(-c2nnc(SCc3ccc(C#N)cc3)n2Cc2ccco2)cc1,"inconclusive: 6.31 µM [inhibitor, partial curve]"
7,CSc1ccc(Nc2nn(-c3ccc(OC(F)(F)F)cc3)nc2C(C)=O)cc1,inactive
8,COc1ccc(CNc2nc(NC(C)=O)nn2-c2ccccc2)cc1,inactive
9,COC(=O)C1=C(c2ccccc2)c2ccccc2S(=O)(=O)N1CC(=O)Nc1cc(C)ccc1C,inactive
10,NC(=S)N/N=C/c1ccccc1,inactive
11,Cc1ccc(N2C(=O)SC(Cc3ccccc3)C2=O)cc1 (centres undefined),"inconclusive: 2.82 µM [inhibitor, full curve, poor fit]"
12,COc1ccc(/C=C/C(=O)c2c(C)cc(C)[nH]c2=O)c2ccccc12,inactive
13,CN(C)c1nc(-c2ccccc2)nc(-c2ccc(Cl)cc2)c1C#N,"inconclusive: 50.1 µM [inhibitor, single point]"
14,CC(=O)NC1=C(NC2CCS(=O)(=O)C2)C(=O)c2ccccc2C1=O (centres undefined),"inconclusive: 22.4 µM [inhibitor, partial curve, poor fit]"
15,CN(C)C(=O)c1ccc(SC(=S)NCc2ccccc2)cc1,"inconclusive: 12.6 µM [inhibitor, partial curve, poor fit]"
16,CCc1cc2c(=O)c(-c3nc4ccccc4n3C)c(C(C)C)oc2c(CN2CCN(C)CC2)c1O,inactive
17,CCOC(=O)c1[nH]c2ccccc2c1NC(=O)c1ccc(OC)c(OC)c1,inactive
18,COc1cc(-n2c(C)nc3cc(C(=O)N4CCOCC4)ccc32)cc(OC)c1OC,inactive
19,CN(C)c1ccc(Nc2nc(N)c([N+](=O)[O-])c(N3CCOCC3)n2)cc1,"inconclusive: 39.8 µM [inhibitor, partial curve, poor fit]"
20,O=C(/C=C/Nc1ccc(F)cc1Br)c1ccccc1,"inconclusive: 35.5 µM [inhibitor, partial curve, poor fit]"
21,O=C1CSc2cc(Cl)ccc2N1,"inconclusive: 22.4 µM [inhibitor, partial curve, poor fit]"
22,CN=C1C=C/C(=N/N=c2\ccn(O)cc2C)C=C1C,"inconclusive: 31.6 µM [inhibitor, partial curve, poor fit]"

# Source: PubChem BioAssay AID624173 (National Center for Advancing Translational Sciences (NCATS), 2012)
